# Measurements as given in PubChem BioAssay AID624296 (National Center for Advancing Translational Sciences (NCATS), 2012).
# “And” between values parts separate entries of the source, which are not always exact repeats. Equal entries are not always repeated. Screen size: about 350,000 compounds; about 9,900 (2.8%) were called active. Inconclusive results, whose numbers are uncertain, are shown with a selection of clear calls. Calls come from the whole dose curve; as a rule, active = well fitted activation curve with a large enough effect; inconclusive = small, poorly fitted or top-dose-only effect; inactive = no such curve, though single readings can be large or run the other way. No potency is given beside an inconclusive call; the fits are too rough.
# Assay: A quantitative high throughput screen for small molecules that induce DNA re-replication in MCF 10a normal breast cells. Note: nearly all actives have a fitted effect of over 50% in size.
# Conditions: MCF 10A DNA re-replication, Hoechst nuclear intensity, 48 h; series mostly up to 46.1 µM
# Potency is the fitted concentration of half-maximal effect; tags give direction and shape of the fitted curve.
row,SMILES,Potency
1,O=P(Oc1ccccc1)(Oc1ccccc1)N1CCN(c2ccc(F)cc2)CC1,"inconclusive [activator, single point]"
2,CC(=O)NCCc1c[nH]c2ccccc12,inactive
3,O=C1NC(=O)C(=Cc2ccc(SC3CCCCC3)o2)C(=O)N1,active: 20.6 µM
4,C#CCOc1cc(C2C3=C(COC3=O)Nc3cc4c(cc32)OCO4)ccc1OC (stereo not given),"inconclusive [activator, partial curve, poor fit]"
5,COc1ccc2[nH]c(C)c(CCNCc3cc(OC)c(OC)c(OC)c3)c2c1,inactive
6,O=C(C[N+]12CCN(CC1)CC2)NCCc1ccc(Cl)cc1Cl,"inconclusive [activator, partial curve, poor fit]"
7,Cc1ccccc1N1CCN(C2CCCN(C(=O)COc3ccccc3)C2)CC1 (stereo not given),inactive
8,O=[N+]([O-])[N-][n+]1cnn(Cc2ccccc2)c1,"inconclusive [activator, partial curve, poor fit]"
9,C[C@]12CCC3C(CCC4=C/C(=N/OCC(=O)NC(CCC(N)=O)C(=O)O)CC[C@@]43C)C1CCC2O (stereo not given in full),inactive
10,CCCCCSc1cc(OC)c(CCNC)cc1OC,inactive
11,CC(C)NC(C)C(=O)C12CC3CC(CC(C3)C1)C2 (stereo not given),"inconclusive [activator, partial curve, poor fit]"
12,COc1ccc(C[C@@H]2c3cc(O)c(OC)cc3CCN2C)cc1O,inactive
13,COc1cccc(CN2CCNCC2)c1,inactive
14,CCCCn1c(O)c(C(CC)=NC(C)c2ccccc2)c(=O)[nH]c1=O (stereo not given),"inconclusive [activator, single point]"
15,Cc1cc(C)cc(Nc2nc3ccc(C)cc3n3cnnc23)c1,"inconclusive [activator, single point]"
16,Cc1cccc(C(=O)NCCC(=O)NCc2ccccc2F)c1,"inconclusive [activator, full curve, poor fit]"
17,COc1ccc(N2C(=O)CS(=O)C(c3ccccc3)C2=O)cc1 (stereo not given),"inconclusive [activator, single point]"
18,O=c1cc(Nc2cccc(Br)c2)[nH]c(=O)[nH]1,"inconclusive [activator, partial curve, poor fit]"
19,COC(=O)C1=C(C(=O)OC)SC2(S1)C(C(=O)OC)=C(C(=O)OC)Sc1c2ssc1=O,"inconclusive [activator, full curve, poor fit]"
20,FC(F)(F)c1ccc2c(c1)N(CCCN1CCN(CCCl)CC1)c1ccccc1S2,"inconclusive [activator, single point]"
21,O=C(CCC1CCCC1)c1c(O)c2ccccc2oc1=O,active: 18.4 µM
22,CC1(C)CN=C(NCc2ccccc2Cl)S1,"inconclusive [activator, single point]"
23,C#CCN1C(=O)S/C(=C\c2ccc(N3CCOCC3)cc2C)C1=O,"inconclusive [activator, single point]"
24,CCCSc1ccc2nc(NC(=O)OC)[nH]c2c1,active: 508 nM and active: 731 nM

row,SMILES,Potency
1,O=C1NC(=S)NC(=O)C1=Cc1ccc(Br)s1,inactive
2,Oc1cc(Cl)cc(Cl)c1Cl,"inconclusive [activator, single point]"
3,COc1ccc(/C=C/C(=O)c2c(O)n(CCC3=CCCCC3)c(=O)[nH]c2=O)cc1,active: 7.31 µM
4,O=[N+]([O-])c1cccc(NP(=O)(Oc2ccccc2)Oc2ccccc2)c1,"inconclusive [activator, single point]"
5,CCOP(=O)(OCC)c1cccc(OP(=O)(c2cccc([N+](=O)[O-])c2)c2cccc([N+](=O)[O-])c2)c1,"inconclusive [activator, partial curve, poor fit]"
6,Cc1sc(NC(=O)CSc2n[nH]c(N)n2)c(C#N)c1C,"inconclusive [activator, single point]"
7,O=C(Nc1ccc(Br)cc1)c1cc(Br)cc(Br)c1O,"inconclusive [activator, full curve]"
8,O=C1NCN(c2ccccc2)C12CCNCC2,inactive
9,Cc1cc(=O)oc2cc3c(cc12)CCCN3,active: 7.31 µM
10,O=C(O)c1sccc1Oc1ccc(F)cc1[N+](=O)[O-],"inconclusive [activator, single point]"
11,C[n+]1c(-c2ccccc2)cc(-c2ccc(O)cc2)cc1-c1ccccc1,"inconclusive [activator, partial curve, poor fit]"
12,OC(CN1CC=C(c2ccccc2)CC1)c1ccccc1 (stereo not given),inactive
13,CCCCN1CC(=O)N2[C@H]3c4cc(C)ccc4OC[C@@H]3[C@H](c3ccccc3)[C@]2(C)C1=O,"inconclusive [activator, partial curve, poor fit]"
14,c1cc2c(cc1NC1=NCCO1)CCCC2,"inconclusive [activator, single point]"
15,C=CCN1C(=O)NC(=O)/C(=C/c2cc3c4c(c2)CCCN4CCC3)C1=O,"inconclusive [activator, single point]"
16,C/C(=C/CCC(C)[C@H]1CC[C@@]2(C)C3=C(CC[C@]12C)[C@@]1(C)CCC(=O)C(C)(C)[C@@H]1CC3)C(=O)O (stereo not given in full),"inconclusive [activator, partial curve, poor fit]"
17,Cc1ccc(-n2nnnc2SCC(=O)Nc2sc(C)c(C)c2C#N)cc1C,"inconclusive [activator, partial curve, poor fit]"
18,O=c1[nH]c(SCc2ccccc2Cl)nc2c1CCCC2,"inconclusive [activator, full curve]"
19,Cc1cccc(OP(=O)(Nc2ccc(F)cc2)Oc2cccc(C)c2)c1,"inconclusive [activator, single point]"
20,Cc1ccc(N=Nc2c(O)[nH]c(=O)[nH]c2=O)cc1S(=O)(=O)Nc1ccc(Br)cc1,"inconclusive [activator, single point]"
21,Clc1cccc(/C=N\Nc2nccs2)c1,active: 5.8 µM
22,NC(N)=N/N=C/c1ccc(N2CCOCC2)cc1,"inconclusive [activator, single point]"
23,CNC(=O)N(C)c1ccc(C(O)(C(=O)OC)C(F)(F)F)cc1 (stereo not given),inactive
24,C/C=C(\C)C(=O)N[C@@H](c1ccccc1)[C@@H](O)C(=O)O[C@H]1C[C@@]2(O)[C@@H](OC(=O)c3ccccc3)C3[C@](C)(C(=O)[C@H](OC(C)=O)C(=C1C)C2(C)C)[C@@H](O)C[C@H]1OC[C@@]31OC(C)=O (stereo not given in full),active: 0.291 µM

row,SMILES,Potency
1,O=C(/C=C/c1ccc(Cl)cc1)NC(=S)N1C[C@H]2C[C@H](C1)c1cccc(=O)n1C2,inactive
2,O=[N+]([O-])C(Br)(CO)CO,"inconclusive [activator, single point]"
3,Cc1cc(C)cc(NC(=O)Cn2c(=O)oc3cc(S(=O)(=O)N4CC(C)CC(C)C4)ccc32)c1 (stereo not given),"inconclusive [activator, single point]"
4,OC(COCc1ccc(Cl)cc1)CN1CC=C(c2ccccc2)CC1 (stereo not given),active: 14.6 µM
5,O=C1CN=C(c2cc([N+](=O)[O-])ccc2Cl)c2cc([N+](=O)[O-])ccc2N1,"inconclusive [activator, single point]"
6,CC(=O)c1c(C)n(Cc2ccccc2)c2ccc(O)cc12,"inconclusive [activator, partial curve, poor fit]"
7,CN(C)CC1CSCCC1(O)c1ccc(C(F)(F)F)cc1 (stereo not given),"inconclusive [activator, single point]"
8,CC12CCC3C(CCC4(O)CC(O)CCC34C=NO)C1(O)CCC2C1=COC(=O)C1 (stereo not given),"inconclusive [activator, full curve, poor fit]"
9,CCOc1ccc(N2C(=O)CC(=O)NC2=O)cc1,"inconclusive [activator, single point]"
10,CCN1CCN(Cc2ccc(OC(F)(F)F)cc2)CC1,inactive
11,CCOP(=O)(CCP(=O)(OCC)OCC)OCC.C[CH2][Sn]([Cl])([Cl])[CH2]C,"inconclusive [activator, single point]"
12,CCCCn1c(O)c(/C=N/N2CCCCC2c2cccnc2)c(=O)[nH]c1=S (stereo not given),inactive
13,CN1C(=O)C(C2c3ccccc3C(=O)N2Cc2ccccc2)C(=O)N(C)C1=O (stereo not given),inactive
14,COc1ccc(NC(=O)c2cn(CCC#N)nc2-c2ccc(OC)c(OC)c2)cc1,active: 6.51 µM
15,CCCCCSc1cc(O)c(C(CNC)C(C)C)cc1OC (stereo not given),"inconclusive [activator, single point]"
16,Cc1cc(C=C2C(=O)NC(=S)NC2=O)c(C)n1C1CCCC1,"inconclusive [activator, single point]"
17,CC=C(C)C(=O)OC1CCN2CC=C(COC(=O)C(O)(C(C)OC)C(C)(C)O)C12 (stereo not given),"inconclusive [activator, single point]"
18,N#Cc1ccc(/C=C/C(=O)O)cc1,inactive
19,Cc1sc2ccccc2c1CC1=NCCN1,"inconclusive [activator, partial curve, poor fit]"
20,Cc1cccc(-c2nc3ccccc3c(=O)n2-n2cccc2)c1,"inconclusive [activator, partial curve, poor fit]"
21,O=C1C=C2C=CC3C[C@@]2(O1)C1CCCCN31 (stereo not given in full),active: 21.1 µM
22,CC(C)CCNC(=O)c1cc(C(=O)c2cc(Br)ccc2O)cn(CCC(C)C)c1=O,"inconclusive [activator, partial curve, poor fit]"
